Test results published in PubChem BioAssay AID504832 (National Center for Advancing Translational Sciences (NCATS), 2011).
Out of some 310,000 compounds screened, about 18,000 (5.8%) were called active. Inconclusive results, whose numbers are uncertain, are shown with a selection of clear calls. The call rests on the fitted dose curve; in most records, active means well fitted inhibition curve with a large enough effect; inconclusive means small, poorly fitted or top-dose-only effect, or another doubt; inactive means no such curve, though single readings can be large or run the other way. No potency is given beside an inconclusive call; the fits are too rough.

Assay: Primary qHTS for delayed death inhibitors of the malarial parasite plastid, 48 hour incubation
Details: P. falciparum luciferase growth in erythrocytes; series mostly up to 28.7 µM; activity change, negative = inhibition: at the top concentration
Outline: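 Erythrocytes infected with P. falciparum carrying an integrated firefly luciferase reporter (2% hematocrit, 0.1% parasitemia final) were exposed to compounds in RPMI 1640 with 0.5% Albumax at 37 C, 5% CO2. Growth inhibition was scored as reduced luminescence.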
On the % scale 0 is the no-effect control and ±100 the full control effect; potency means the concentration at half of the fitted maximal effect; tags describe the fitted curve by direction and shape.

| SMILES | Potency | activity change, negative = inhibition |
| --- | --- | --- |
| Cc1ccc(S(=O)(=O)Cc2ccc(C(=O)N3CCN(Cc4ccccc4)CC3)o2)cc1 | inconclusive [inhibitor, partial curve] |  |
| O=C(Cn1c(=O)n(Cc2ccccc2)c(=O)c2cc(Cl)ccc21)NCC1CCCO1 (stereo not drawn) | inconclusive [inhibitor, partial curve, poor fit] |  |
| Cc1ccc(-c2cc(C(=O)NCCCN3CCOCC3)c3ccccc3n2)cc1 | inconclusive [inhibitor, single point] |  |
| COc1ccc(-c2cc(C(=O)Nc3ccc(C(N)=O)cc3)c3ccccc3n2)cc1OC | inconclusive [inhibitor, partial curve] |  |
| CC1=NN(C(=O)Cc2ccccc2)C(O)(c2cccnc2)C1 (stereo not drawn) |  | inactive: -11.8% |
| C=CCn1c2ccccc2c2nnc(SCc3ccc4nonc4c3)nc21 | inconclusive [inhibitor, single point] |  |
| O=S(=O)(Nc1ccc(-c2cn3cccnc3n2)cc1)c1ccccc1 | inconclusive [inhibitor, partial curve, poor fit] |  |
| COc1ccccc1C(=O)N/N=C(\C)CC(=O)Nc1ccc(Nc2ccccc2)cc1 | inconclusive [inhibitor, single point] |  |
| CCC1CCCCN1CCCNC(=O)c1ccc2nc(N3CCC(C)CC3)sc2c1 (stereo not drawn) | inconclusive [inhibitor, single point] |  |
| CCC1=C(OC(=O)N(CC)CC)N2C(=O)OC(=NCC(=O)OC)[C@]2(Cc2ccccc2)[C@H]2C1=CC[C@H]1C(=O)N(c3ccccc3)C(=O)[C@H]12 | active: 6.57 µM |  |
| CN(c1ccccc1)C1CCCCC1NS(=O)(=O)c1ccc(Cl)cc1 (stereo not drawn) | active: 6.57 µM |  |
| CCOC(=O)c1nn(-c2cccc(C)c2)cc1C(=O)c1ccccc1 | inconclusive [inhibitor, single point] |  |
| COc1cc(OC)c2ccc(=O)oc2c1C(CCN1CCCC1)c1ccc2c(c1)OCO2 (stereo not drawn) | inconclusive [inhibitor, single point] |  |
| Cc1cc(S(=O)(=O)Nc2cccc([N+](=O)[O-])c2)c(C)s1 |  | inactive: -4.08% |
| COc1ccc(-n2nc(C(=O)NCC(=O)Nc3cc(Cl)c(OC)cc3OC)c3ccccc3c2=O)cc1 | inconclusive [inhibitor, partial curve] |  |
| c1ccc(C(c2ccccc2)c2noc(CN3CCC(c4ccncc4)CC3)n2)cc1 | active: 10.4 µM |  |
| CCOC(=O)c1c(NC(=O)Cn2nnc3ccccc32)sc2c1CCC(C)C2 (stereo not drawn) | inconclusive [inhibitor, single point] |  |
| CCCCC(=O)Nc1ccccc1C(C)C |  | inactive: 10.5% |
| COc1cccc(-c2cc(C(=O)Nc3nc4ccccc4s3)c3ccccc3n2)c1 | inconclusive [inhibitor, single point] |  |
| O=C(NC(=O)C(F)(F)F)Nc1ccc(S(=O)(=O)Nc2nccs2)cc1 |  | inactive: 81.4% |
| COc1ccccc1COc1ccc2c(C)c(CC(=O)O)c(=O)oc2c1C |  | inactive: 1.37% |
| CSc1nc(C)c(CCOC(=O)c2cccc(Cl)c2)c(=O)[nH]1 | inconclusive [inhibitor, single point] |  |

| SMILES | Potency | activity change, negative = inhibition |
| --- | --- | --- |
| N#Cc1ccncc1Sc1ccc(Cl)cc1 | inconclusive [inhibitor, single point] |  |
| c1ccc(-c2cc(-c3ccc(N4CCOCC4)cc3)nc3ccccc23)cc1 | inconclusive [inhibitor, partial curve] |  |
| COc1cc(/C=N/NC(=O)c2cc[n+]([O-])cc2)cc(OC)c1OC | inconclusive [inhibitor, single point] |  |
| Cc1cc(O)c(CN2CCN(c3ccccc3)CC2)cc1C | active: 1.47 µM |  |
| CC(C)NC(=S)N/N=C/c1cccnc1 |  | inactive: 7.74% |
| COc1ccc(N2CCN(C3CCCN(C(=O)CSC)C3)CC2)cc1 (stereo not drawn) |  | inactive: -0.21% |
| COc1ccccc1NC(=O)c1cccc(S(=O)(=O)N2CCN(c3ccccc3)CC2)c1 | inconclusive [inhibitor, single point] |  |
| CCCn1c(SCC(=O)N(C)CC(=O)Nc2ccc(Cl)cc2)n[nH]c1=O | inconclusive [inhibitor, partial curve, poor fit] |  |
| COC(=O)c1cc(=O)n(Cc2ccc(OC)cc2)c(=NCc2ccc(OC)cc2)s1 | inconclusive [inhibitor, single point] |  |
| COc1cccc(Nc2nc(Nc3ccc(Cl)c(C(=O)O)c3)nc(C)c2[N+](=O)[O-])c1 |  | inactive: 6.34% |
| CC(C)(C)c1ccccc1NC(=O)Cn1cnc2cc([N+](=O)[O-])ccc2c1=O | inconclusive [inhibitor, single point] |  |
| CC(=O)c1ccc(N2CCN(S(=O)(=O)c3cc4c(cc3C)NC(=O)CO4)CC2)cc1 | inconclusive [inhibitor, partial curve, poor fit] |  |
| CCC(=NC)C1=C(O)CC(c2ccccc2)CC1=O (stereo not drawn) |  | inactive: -18.1% |
| Cc1nn(-c2cccc(Cl)c2)c2c1C(c1ccncc1)C(C#N)=C(N)O2 (stereo not drawn) | inconclusive [inhibitor, single point] |  |
| Cc1cc(-n2cc(Br)c(=O)[nH]c2=O)nc(-c2ccccc2)n1 | inconclusive [inhibitor, single point] |  |
| O=C(CN1CCN(Cc2cccc(F)c2)CC1)Nc1ccccc1F |  | inactive: -8.99% |
| COc1ccccc1CNC(=O)c1cc2ccccc2o1 |  | inactive: -11.4% |
| COc1ccccc1CNC(=O)c1ccc2nc3[nH]c4ccccc4c3nc2c1 | inconclusive [inhibitor, partial curve, poor fit] |  |
| COCCN(CC(=O)Nc1ccccc1C(F)(F)F)C(=O)/C=C/c1cc(Cl)c2c(c1)OCO2 | inconclusive [inhibitor, single point] |  |
| O=C(c1ccc(Cl)c(S(=O)(=O)N2CCCCCC2)c1)N1CCCCC1 | inconclusive [inhibitor, partial curve] |  |
| O=C(C[n+]1cc(-c2ccc(Cl)c(Cl)c2)n2c1CCC2)c1cccs1 | active: 2.08 µM |  |
